Experimental data from a collection of fitness landscapes (doi:10.1016/j.celrep.2020.107928).
Over roughly 81,000 sequences, “one-hybrid fitness for binding parS DNA” has its median near -0.17; the highest 2% begin near 0.51. The list shows a part of the results.

B1: Caulobacter ParB omega fusion; a variant is named by its letters at X, in order, B8GW30 (parent)
chain: MESVVVGEPGMSEGRRGLGRGLSALLGEVDAAPAQAPGEQLGGSREAPIEILQRNPDQPRRTFREEDLEDLSNSIREKGVLQPILVRPSPDTAGEYQIVAGERAWRAAQRAGLKTVPIMVRELDDLAVLEIGIIENVQRADLNVLEEALSYKVLMEKFERTQENIAQTIGKSXSHVANXMRLLXLPDEVQSYLVSGELTAXHARAIAAAADPVALAKQIIEGGLSVRETEALARKAPNLSAGKSKGGRPPRVKDTDTQALESDLSSVLGLDVSIDHRGSTGTLTITYATLEQLDDLCNRLTRGI

Variants of: B1
Test: one-hybrid fitness for binding parS DNA (scaled: cognate 1, non-cognate 0); higher = stronger binding
Conditions: with parS DNA site
Procedure, shortened: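 On M9-minus-histidine containing 0.1 mM IPTG and 5 mM 3-AT, E. coli USO cells with a HIS3 reporter, site 19 bp from the promoter, grew 48 hours at 37°C to select Caulobacter ParB libraries randomised at four specificity codons. Plasmids from before and after were Illumina-sequenced, with three replicate libraries pooled and variants under 10 reads left out. Fitness is the log change in variant-to-wild-type read ratio, rescaled against cognate and non-cognate.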

Variant	one-hybrid fitness for binding parS DNA
FDSP	≤ 0.2
CVYG	≤ 0.2
IYVG	≤ 0.2
DCRH	≤ 0.2
HSIT	≤ 0.2
EFMG	≤ 0.2
SLRT	≤ 0.2
LDNY	≤ 0.2
DMER	≤ 0.2
QGHT	≤ 0.2
VHLD	≤ 0.2
DRLA	≤ 0.2
DNQL	≤ 0.2
KVHV	≤ 0.2
SLDY	≤ 0.2
YMAN	≤ 0.2
GSRG	≤ 0.2
RLKD	≤ 0.2
VLCI	≤ 0.2
YSKW	≤ 0.2
HTLL	≤ 0.2
TIFE	≤ 0.2
NPDV	≤ 0.2
NNFT	≤ 0.2

Variant	one-hybrid fitness for binding parS DNA
GHTK	≤ 0.2
YTHY	≤ 0.2
KRGG	≤ 0.2
MPAP	≤ 0.2
CDNI	≤ 0.2
PQTD	≤ 0.2
CNMT	≤ 0.2
TGVY	≤ 0.2
AKLG	≤ 0.2
DKNF	≤ 0.2
RTKR	≤ 0.2
TANN	≤ 0.2
KLFA	≤ 0.2
TGGF	≤ 0.2
IPCK	≤ 0.2
SPYN	≤ 0.2
LFTV	≤ 0.2
GPDA	≤ 0.2
TLKY	≤ 0.2
RLSR	≤ 0.2
CATR	≤ 0.2
AWSR	≤ 0.2
YQDC	≤ 0.2
VVQL	≤ 0.2

Variant	one-hybrid fitness for binding parS DNA
DCTY	≤ 0.2
RQQI	≤ 0.2
HPVC	≤ 0.2
LGSN	≤ 0.2
GLLC	≤ 0.2
QSIS	≤ 0.2
PWTF	≤ 0.2
IEFC	≤ 0.2
RHAV	≤ 0.2
GHIE	≤ 0.2
NRPG	≤ 0.2
FSLS	≤ 0.2
TKHT	≤ 0.2
YRGA	0.24
SDSI	≤ 0.2
SNYG	≤ 0.2
EVVL	≤ 0.2
FCLT	≤ 0.2
ARRG	≤ 0.2
HLSQ	≤ 0.2
LCYG	≤ 0.2
MWLW	≤ 0.2
KGMG	≤ 0.2
HVAT	≤ 0.2

Variant	one-hybrid fitness for binding parS DNA
GDFT	≤ 0.2
DPID	≤ 0.2
RSTT	0.895
PGQI	≤ 0.2
PHGH	≤ 0.2
ANER	≤ 0.2
PNPT	≤ 0.2
YDFI	≤ 0.2
FCSR	≤ 0.2
QKGN	≤ 0.2
SPHW	≤ 0.2
TVKT	≤ 0.2
QDYL	≤ 0.2
RVNG	0.992
GLRW	≤ 0.2
QPRR	≤ 0.2
DNTL	≤ 0.2
SHAI	≤ 0.2
DQST	≤ 0.2
LQGW	≤ 0.2
LAAA	≤ 0.2
FTNT	≤ 0.2
KAKC	≤ 0.2
DRHF	≤ 0.2

Variant	one-hybrid fitness for binding parS DNA
NNRR	≤ 0.2
LLCL	≤ 0.2
YVIR	≤ 0.2
RLKV	≤ 0.2
KVVT	≤ 0.2
RLAY	0.472
HLGM	≤ 0.2
TANW	≤ 0.2
HITC	≤ 0.2
SDVM	≤ 0.2
NVNT	≤ 0.2
KRFN	≤ 0.2
QSTL	≤ 0.2
YTIC	≤ 0.2
GGMV	≤ 0.2
RKSR	≤ 0.2
KHIS	≤ 0.2
HPHE	≤ 0.2
IFST	≤ 0.2
MKAR	≤ 0.2
LSDE	≤ 0.2
LSSS	≤ 0.2
IGCV	≤ 0.2
SDSV	≤ 0.2

Variant	one-hybrid fitness for binding parS DNA
TMAN	≤ 0.2
IPES	≤ 0.2
GCEN	≤ 0.2
VTTY	≤ 0.2
QQWA	≤ 0.2
CQAV	≤ 0.2
PPMS	≤ 0.2
HTTP	≤ 0.2
FLGL	≤ 0.2
YNRY	≤ 0.2
GMSK	≤ 0.2
YYKA	≤ 0.2
RNHA	0.438
VINT	≤ 0.2
YDMG	≤ 0.2
TTRE	≤ 0.2
WHTW	≤ 0.2
NRLR	≤ 0.2
SVNR	≤ 0.2
TINR	≤ 0.2
SAID	≤ 0.2
PWHV	≤ 0.2
CHPS	≤ 0.2
LVWN	≤ 0.2

Variant	one-hybrid fitness for binding parS DNA
HPQW	≤ 0.2
FWVS	≤ 0.2
HIPM	≤ 0.2
TKFS	≤ 0.2
HPVR	≤ 0.2
IFEI	≤ 0.2
GMSG	≤ 0.2
HDPY	≤ 0.2
SFQT	≤ 0.2
IRCI	≤ 0.2
NAPL	≤ 0.2
MHLW	≤ 0.2
RYST	0.862
LRYH	≤ 0.2
YAMY	≤ 0.2
NRWY	≤ 0.2
PIPA	≤ 0.2
IATT	≤ 0.2
RKGD	≤ 0.2
ELSW	≤ 0.2
EPSS	≤ 0.2
WESG	≤ 0.2
QTTS	≤ 0.2
MSMS	≤ 0.2

Variant	one-hybrid fitness for binding parS DNA
WHLD	≤ 0.2
MLPF	≤ 0.2
TQTF	≤ 0.2
AQRI	≤ 0.2
HDCT	≤ 0.2
RVIK	≤ 0.2
QLSM	≤ 0.2
EFNG	≤ 0.2
SAHR	≤ 0.2
FMSQ	0.554
GGEC	≤ 0.2
SGAG	≤ 0.2
PDGR	≤ 0.2
LSLY	≤ 0.2
PTII	≤ 0.2
VWEG	≤ 0.2
DMSM	≤ 0.2
PFQM	≤ 0.2
PHTS	≤ 0.2
QTFA	≤ 0.2
DRYR	≤ 0.2
AKFC	≤ 0.2
VRTT	≤ 0.2
QVLI	≤ 0.2

Variant	one-hybrid fitness for binding parS DNA
QVVG	≤ 0.2
SPAM	≤ 0.2
RACT	0.852
YRET	≤ 0.2
CDNR	≤ 0.2
PWVG	≤ 0.2
NPFY	≤ 0.2
YYRV	≤ 0.2
QYCI	≤ 0.2
SRTD	≤ 0.2
WRTR	≤ 0.2
SIST	≤ 0.2
KKPT	≤ 0.2
QQRS	≤ 0.2
PIFL	≤ 0.2
KRRM	≤ 0.2
KEPC	0.255
TSTT	≤ 0.2
NSWS	≤ 0.2
SKDC	≤ 0.2
RLHK	≤ 0.2
GGNT	≤ 0.2
YVHR	≤ 0.2
CTEL	≤ 0.2

Variant	one-hybrid fitness for binding parS DNA
QYDA	≤ 0.2
PNPE	≤ 0.2
KTNN	≤ 0.2
KFFY	≤ 0.2
CKLR	≤ 0.2
ASFG	≤ 0.2
ALLH	≤ 0.2
PSFP	≤ 0.2
VTIT	≤ 0.2
RKVF	≤ 0.2
PCCR	≤ 0.2
ADTF	≤ 0.2
AIRF	≤ 0.2
DAWR	≤ 0.2
QQWF	≤ 0.2
TRPW	≤ 0.2
YESG	≤ 0.2
NLEG	≤ 0.2
MIVV	≤ 0.2
QAHI	≤ 0.2
ARMY	≤ 0.2
LLCG	≤ 0.2
SESM	≤ 0.2
GLCR	≤ 0.2

Variant	one-hybrid fitness for binding parS DNA
TLWW	≤ 0.2
RVNQ	≤ 0.2
FGDG	≤ 0.2
YKCE	≤ 0.2
CWHS	≤ 0.2
LALC	≤ 0.2
AQSM	≤ 0.2
QYMV	≤ 0.2
VNRP	≤ 0.2
RLIH	0.21
QTGT	≤ 0.2
KFVR	≤ 0.2
GMCA	≤ 0.2
YQDG	≤ 0.2
VGDA	≤ 0.2
FLKC	≤ 0.2
NMKR	≤ 0.2
NHLG	≤ 0.2
NYAM	≤ 0.2
ETAI	≤ 0.2
TNAN	≤ 0.2
SNDD	≤ 0.2
QSNE	≤ 0.2
MTQH	≤ 0.2

Variant	one-hybrid fitness for binding parS DNA
AHKT	≤ 0.2
LWGS	≤ 0.2
RRND	≤ 0.2
RSKD	≤ 0.2
RVAA	0.582
LLIR	≤ 0.2
MVDG	≤ 0.2
DMNV	≤ 0.2
EFTR	≤ 0.2
LQYA	≤ 0.2
LSRT	≤ 0.2
TSNC	≤ 0.2
RENT	≤ 0.2
KAWR	≤ 0.2
TCMD	≤ 0.2
LYSG	≤ 0.2
QYDF	≤ 0.2
VKQG	≤ 0.2
PPLC	≤ 0.2
GRLG	≤ 0.2
RRWL	≤ 0.2
RWNP	≤ 0.2
GRSS	≤ 0.2
ASYM	≤ 0.2

Variant	one-hybrid fitness for binding parS DNA
YSTF	≤ 0.2
KILW	≤ 0.2
LDPR	≤ 0.2
RYLT	0.911
TFTK	≤ 0.2
VIMF	≤ 0.2
RTKY	0.89
RINR	≤ 0.2
VTTF	≤ 0.2
TVDL	≤ 0.2
CRLE	≤ 0.2
KITS	≤ 0.2
SSSC	≤ 0.2
EQFV	≤ 0.2
YTPT	≤ 0.2
HPDG	≤ 0.2
LTMA	0.262
RMYL	≤ 0.2
